For 22 molecules, binding signal results are on record in article PMC12136788.

The list shows a part of the results.

T1: UNK ZnF1-3 (human, UniProt Q9C0B0 31-174)
T1 sequence: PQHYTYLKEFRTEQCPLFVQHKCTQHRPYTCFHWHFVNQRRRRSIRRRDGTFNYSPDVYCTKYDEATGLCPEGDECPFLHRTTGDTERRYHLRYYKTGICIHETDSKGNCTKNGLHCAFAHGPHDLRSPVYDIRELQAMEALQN

B1: chr9:53430067:53430068:-_ENSMUSG00000032030_ENSMUST00000166367|mus_mus|motif|central (ssRNA)
RNA: GGGAGUUCUACAGUCCGACGAUCGGGUGAGUUGACUUGAGGGUCAUACAACAAAACUUGCCGUUUGAGCUUGGGAAAAGCGGCGGAAGACCAUAAAGUCCUUCUAAGUUCAGCAUCUGGGAGUUCCGUUGCAAGUUUUAGAUUCAACAGAGGAUUGAGCAUCA
B2: chr10:112361861:112361862:+_ENSG00000108055_ENST00000361804|hu_hu|motif|central (ssRNA)
RNA: GGGAGUUCUACAGUCCGACGAUCAAUAGCUUCAUAUUUCCGAAGUUCAAGUACAUUCAUCAGUUCCAUGAUUGAUUUGUAACCCCGGUCUAACUCUUCUUGACGCUUUAUUAACUUUUCUUUCUGCUCGGAGAAAUUUACAAACAACAGAGGAUUGAGCAUCA
B3: chr11:74504092:74504093:-_ENSMUSG00000020745_ENSMUST00000021091|mus_mus|FALSE|FALSE (ssRNA)
RNA: GGGAGUUCUACAGUCCGACGAUCCUUCCUUUUUAAAAACGGAAUAUGCCUCUUCAUAGCCAUUUGAACGAAGAUAAUCUGCUAUAGCUCGAUUUAGUUCAUCUCGUUGUCUCUGGGACAGCACCAUUUUGGCUGUAAUGUCAACAACAGAGGAUUGAGCAUCA
B4: 25264311_25266599_1377_CDS_ENSG00000155592_ENST00000328086|human|control|control (ssRNA)
RNA: GGGAGUUCUACAGUCCGACGAUCGGUAUUCCAUUCAUCAGCAAGGGCAGGAACCCAGGGAGAAGGCCGAGCAUUCUUGGGUAAGGGCCGACGUUCUCGCUUUCGGUUCAGCUGUUCCUGGUGUCCUGAGUGGAGGCUUCCAGGCAACAGAGGAUUGAGCAUCA
B5: chr11:63961690:63961691:+_ENSG00000168439_ENST00000305218|hu_hu|FALSE|FALSE (ssRNA)
RNA: GGGAGUUCUACAGUCCGACGAUCCUCGUGUUUUAAGCCCUCCUCAUAGGUUCGCUUGGCUUCUUCAAAGCGGUUUAAGAACUCUAGAGCUGCUGCUUUUCGUGAAUAGCCCUUGCCCCAGUCAGGCUUUAGGUCGACAGUCUUCAACAGAGGAUUGAGCAUCA
B6: chr5:162943533:162943534:+_ENSG00000038274_ENST00000321757|hu_hu|motif|central (ssRNA)
RNA: GGGAGUUCUACAGUCCGACGAUCAGGAAUCCUCAAAACAGCAGCUCCUAGAUUGUUCUCCAGGACAGCCUUUUCUCCAUCGGAUUUUGUUUUGCCAUACAAAUUUAGGGGAGCUGGUAUGUCUUCCUCUCUGUAAGGUGGAUUCAACAGAGGAUUGAGCAUCA
B7: chr3:179287964:179287965:+_ENSG00000136518_ENST00000429709|hu_hu|hu_hu_hu_mus_True|38_58 (ssRNA)
RNA: GGGAGUUCUACAGUCCGACGAUCCUUGAGUGGUGAGAUGGCCUCCAUGUUCUCCCUGGGCACGCGGAGGGCAUUGGUAUCUAUGUAGUAGGUGGGCCCGCCUUGUUUGCCUUUGUCACCAUCAAUCUCCAUCAUUGUACUUCCCAACAGAGGAUUGAGCAUCA
B8: chr14:102368134:102368135:+_ENSG00000078304_ENST00000445439|hu_hu|hu_hu_hu_mus_True|48_48 (ssRNA)
RNA: GGGAGUUCUACAGUCCGACGAUCAAGAGGCUCCAUGAUCUUCACAAACUCUGAUGGUUCAAUUACAUCUAAAAUUUCUUCUAAUUCGUUUAAGAACAUUACUUCUUUUGGACUGUGAGUCUUUGGCCAGUAUUUGAGAAGUGCCAACAGAGGAUUGAGCAUCA
B9: chr11:77336104:77336105:-_ENSG00000074201_ENST00000525064|hu_mus|hu_hu_hu_mus_False|48_78 (ssRNA)
RNA: GGGAGUUCUACAGUCCGACGAUCCUCACACAUUGCUGUGAACAUCGCCUCCAAUGCUGAUUUAUCACUGGGCACAAAUCGAAAUUCAGUAAUAGGUUCAACAUCAUCAUUGUCUUCCUCAUCUUCAUCAGAGAGAGGUUCUUUCAACAGAGGAUUGAGCAUCA
B10: 73911452_73922753_435_3pUTR_ENSMUSG00000051674_ENSMUST00000063882|mouse|control|control (ssRNA)
RNA: GGGAGUUCUACAGUCCGACGAUCAUCCUCAGUUCCUGCAUAUUCAUAAAACCACUCCAGGCACCGCUUACUGGAGAAAGCCUCUUCUUCAGUCUUUAUUCUAGUUGACUCGUAUUUCCUAUACAUGCUGUCAUGCCUGCUUUUCAACAGAGGAUUGAGCAUCA
B11: chr8:38067834:38067835:+_ENSG00000156735_ENST00000287322|hu_hu|FALSE|FALSE (ssRNA)
RNA: GGGAGUUCUACAGUCCGACGAUCCUUGGUUAGCAUUUCUUCCAGAAGCCAGUAUGCUUUGUCUGUCUUUUUUCCUACAAAUUCUUCUACUUCUUGUUCAAGAUACUGGACCUUCUCCAGCACAUGUAUGAUUUUUUUAAUACUCAACAGAGGAUUGAGCAUCA
B12: chr1:193038565:193038566:+_ENSG00000116747_ENST00000367444|hu_mus|FALSE|FALSE (ssRNA)
RNA: GGGAGUUCUACAGUCCGACGAUCGCGACCCCACAUGCCACACUUCAUGCUCUCCUUCAGGUCUUUCUUAAACUGGAUAAAAGUGAAGAGGUGGGUCGGAAUGCGACACACUUCAGGGACAGCUUUAAAGGCUGCUUGCUUUGUCAACAGAGGAUUGAGCAUCA
B13: chrX:20428832:20428833:+_ENSMUSG00000001127_ENSMUST00000120356|mus_hu|FALSE|FALSE (ssRNA)
RNA: GGGAGUUCUACAGUCCGACGAUCACAAUGCUGGUGGAACUUGUAGCCACAGGUUUGGCAACGGAAGCCAUGGAACAGAAACUUAAGGCAGAAGUCACAGAACGCCAGGCUGAAGAAGGUCUUCCGUACAAAAUUGUGCAUGGUCAACAGAGGAUUGAGCAUCA
B14: chr12:39756943:39756944:-_ENSG00000139116_ENST00000544797|hu_mus|hu_hu_hu_mus_False|48_48 (ssRNA)
RNA: GGGAGUUCUACAGUCCGACGAUCGGUUUGGCUGUUACCCCCAAGGGAAUCCUGCAAGAGUCUUGUCAGCUUAGAGUCUCUGUAAGGGACAUGUGUGGCUCUCUUGCUCUUGUCCCCCAAGGCGCUGAUUACAUUCCCAAGAGCCAACAGAGGAUUGAGCAUCA
B15: chr1:220276048:220276049:+_ENSG00000067704_ENST00000302637|hu_mus|motif|central (ssRNA)
RNA: GGGAGUUCUACAGUCCGACGAUCGCAAAUUGCCUGGUUGGCGGGAAUUGUCCAAGGCUGGGUGGUCCAAACUAAAACGCGGACAGGGGAUGAGGCAUCUGUAAGAGACUCCAACUUCGGAGGAGGUCUCAGGAGGGGGAAUCUCAACAGAGGAUUGAGCAUCA
B16: chr9:98468509:98468510:+_ENSMUSG00000032458_ENSMUST00000035033|mus_mus|FALSE|FALSE (ssRNA)
RNA: GGGAGUUCUACAGUCCGACGAUCAAACGUCUUCACCAGUGUCUGAGUUUCAUGAUUCCAAACACACACACUGCCAUUGUAAAGACUAGCCAACAUCCAUGGCUCUGUGGGAUGCAAAUCCACGCUCUUAACUCGGUCAGACCUCAACAGAGGAUUGAGCAUCA
B17: chr1:171492454:171492455:+_ENSG00000117523_ENST00000367742|hu_hu|motif|central (ssRNA)
RNA: GGGAGUUCUACAGUCCGACGAUCAUCAGCUUCAGCAUCUAGGUUAUCAAAUUUAUCAAGCUCCUUCAGUUCUGAUGCACGGAGAAUGGAUGGGCGUUCAGGCUCAGAGGCCCAUGAAGGAGGUGGGCCUCUUCCUCGAAGGCCCAACAGAGGAUUGAGCAUCA
B18: chr3:31678068:31678069:+_ENSG00000163527_ENST00000295770|hu_hu|motif|central (ssRNA)
RNA: GGGAGUUCUACAGUCCGACGAUCUUUGCAUUAGAGAAACAUGAAAAUAAAUAUAAUUCAAGGAAGUAUAAUGAUUCUUCGGAUAUGUCUUUCUCAGACCUGUACUAGUUUACCGGUUCAAGAAGCUCUCAUCACAUUUUGUCACAACAGAGGAUUGAGCAUCA
B19: chr17:79190952:79190953:-_ENSMUSG00000039414_ENSMUST00000097281|mus_mus|FALSE|FALSE (ssRNA)
RNA: GGGAGUUCUACAGUCCGACGAUCGCUAUGAUCAGUUGCAGCCAUGAAUGCCAUUCGAAUCAGGUCAGAGAGAUGCAAUACUAGGAGGUCAUUUUUUGGGUUUCGUAGUUUAGCAGACCGUGCCAAGGCAAGGUCGAAGUGAGCCAACAGAGGAUUGAGCAUCA
B20: chr7:148615726:148615727:-_ENSMUSG00000019082_ENSMUST00000106007|mus_mus|FALSE|FALSE (ssRNA)
RNA: GGGAGUUCUACAGUCCGACGAUCUUUUACAUGACAAGACACAAAAAGUUACAACUUCUUAAAACUCUUCAAAAGAAAAAAAUAUAAUUCUGUAAGCAGCAGCAGCAGCUUUCAAGGUACAGACGUAAGAGGAGGGGUGGCUCCCAACAGAGGAUUGAGCAUCA
B21: 106595490_106595610_4186_CDS_ENSMUSG00000040661_ENSMUST00000046502|mouse|control|control (ssRNA)
RNA: GGGAGUUCUACAGUCCGACGAUCCAUAAAUAGGGAAUUCUCCCCAGCCUGGGAGGUGAAGGGGGUGGUGAGGUUAUGAUUUAAGGAGACAGGCGGCAUUGCAAACCCGCCAGAGACUGGAUACCCAUGUUCAUAGGGCUGCACCAACAGAGGAUUGAGCAUCA
B22: 112785651_112785771_727_CDS_ENSMUSG00000030881_ENSMUST00000084782|mouse|control|control (ssRNA)
RNA: GGGAGUUCUACAGUCCGACGAUCUUUGACAGUCAUGAGUGUGUCUUCCAUGGUCUUGGUGACCAGUGUGUUGAUGCUAGAGACAAAGAAGUUCACAGCCCCUAGCAGCGUCUCCCCAUUCUUGCACAGCAGCUUUUGUGUCUCCAACAGAGGAUUGAGCAUCA

For this test, the target named is T1, UNK ZnF1-3. As to the kind of experiment: nsRBNS (natural sequence RNA bind-n-seq); RBNS binding buffer (assumed for nsRBNS): 25 mM Tris pH 7.5, 150 mM KCl, 3 mM MgCl2, 0.01% Triton X-100, 500 ug/ml BSA, 20 U/ml SUPERase-In, 4 C; UNK is unkempt and MSI1 is Musashi-1; names of the RNAs are library labels; protein concentration not given here; high values mean tight binding.
B1: the binding signal stood at 1.31 enrichment R.

As to B2, the binding signal came out at 0.602 enrichment R.

As to B3, the binding signal came to 0.694 enrichment R.

Molecule B4 gave a binding signal of 0.751 enrichment R.

Take B5: the binding signal was 0.566 enrichment R.

B6 showed a binding signal of 0.928 enrichment R.

For B7, the binding signal came to 0.625 enrichment R.

For the molecule B8, the binding signal turned out to be 0.787 enrichment R.

Molecule B9 gave a binding signal of 0.826 enrichment R.

Molecule B10 had a binding signal of 0.68 enrichment R.

B11 showed a binding signal of 0.444 enrichment R.

B12 had a binding signal of 0.861 enrichment R.

B13: the binding signal turned out to be 1.46 enrichment R.

As to B14, the binding signal came to 0.67 enrichment R.

B15 came in with a binding signal of 2.6 enrichment R.

Regarding B16, the binding signal worked out at 0.522 enrichment R.

Regarding B17, the binding signal was 1.27 enrichment R.

The molecule B18 registered a binding signal of 0.791 enrichment R.

For B19, the binding signal was 1.07 enrichment R.

In turn, B20 registered a binding signal of 1.75 enrichment R.

With B21, the binding signal was 1.56 enrichment R.

Consider B22, for which the binding signal worked out at 0.67 enrichment R.
